These results are taken from the BET-seq Pho4 binding data (Le et al. 2018).

The list shows a part of the results. Values were computed here from the reads of four pooled replicates and scatter widely.

This experiment has as its target T1, Pho4 (S. cerevisiae) (UniProt P07270).
T1 sequence: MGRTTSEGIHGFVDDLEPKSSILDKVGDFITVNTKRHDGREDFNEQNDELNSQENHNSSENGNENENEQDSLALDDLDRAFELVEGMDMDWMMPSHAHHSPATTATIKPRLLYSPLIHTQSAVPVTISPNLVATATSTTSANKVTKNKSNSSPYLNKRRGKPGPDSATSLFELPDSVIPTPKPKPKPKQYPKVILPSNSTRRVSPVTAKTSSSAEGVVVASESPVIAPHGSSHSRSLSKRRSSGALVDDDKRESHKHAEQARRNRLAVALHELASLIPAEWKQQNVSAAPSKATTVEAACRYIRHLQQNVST
The experiment can be described thus: relative binding free energy (BET-seq); higher = weaker binding. The conditions noted are these: reference: library average.
With ATGCGCACGTGAAGAT, the “relative binding free energy” value amounted to 0.33 kcal/mol.

On to AGGGGCACGTGGGGTC, for which the “relative binding free energy” value is -0.19 kcal/mol.

As to TCGGGCACGTGGAGTC, the “relative binding free energy” value was -0.09 kcal/mol.

Turning to TTGTGCACGTGACATA, the “relative binding free energy” value is -0.01 kcal/mol.

On to GAGAGCACGTGATTGG, for which the “relative binding free energy” value is 0.04 kcal/mol.

As for AATGTCACGTGAATGT, the “relative binding free energy” value is 0.09 kcal/mol.

Consider TTTTTCACGTGAGATA, for which the “relative binding free energy” value is 0.35 kcal/mol.

Take ATCTTCACGTGTGTTC: the “relative binding free energy” value worked out at 0.3 kcal/mol.

CAATGCACGTGAGGAG: the “relative binding free energy” value came to 0.35 kcal/mol.

Consider AGTCGCACGTGGAGTG, for which the “relative binding free energy” value was -0.04 kcal/mol.

Regarding AATTACACGTGATGGG, the “relative binding free energy” value is 0.19 kcal/mol.

Consider TAATCCACGTGGGGTA, for which the “relative binding free energy” value was -0.11 kcal/mol.

Turning to GTTAGCACGTGCGTGG, the “relative binding free energy” value is -0.11 kcal/mol.

As to ATTTTCACGTGGTTCC, the “relative binding free energy” value turned out to be 0.37 kcal/mol.

With GGTACCACGTGGTCTT, the “relative binding free energy” value is -0.01 kcal/mol.

As for TGAGTCACGTGAGGTT, the “relative binding free energy” value came to 0.16 kcal/mol.

With TTGTCCACGTGTAGTA, the “relative binding free energy” value is -0.05 kcal/mol.

Consider GGATGCACGTGCGTGG, for which the “relative binding free energy” value was -0.06 kcal/mol.

TATGGCACGTGGGACT: the “relative binding free energy” value is -0.21 kcal/mol.

Take GTATACACGTGATTAT: the “relative binding free energy” value was determined as 0.09 kcal/mol.

On to GTATCCACGTGGTTAT, for which the “relative binding free energy” value is -0.03 kcal/mol.

For TGATTCACGTGGATTG, the “relative binding free energy” value came out at 0.23 kcal/mol.

As for GGGTTCACGTGGCATG, the “relative binding free energy” value stood at 0.29 kcal/mol.

GCTGTCACGTGGGGTG: the “relative binding free energy” value is -0.04 kcal/mol.

For the sequence CGGCACACGTGGTAGG, the “relative binding free energy” value is -0.06 kcal/mol.

For the sequence ATGGTCACGTGTGGCG, the “relative binding free energy” value was found to be 0.16 kcal/mol.

With GGGAGCACGTGGAAGA, the “relative binding free energy” value is -0.01 kcal/mol.

For GGGAACACGTGGGCGG, the “relative binding free energy” value is -0.21 kcal/mol.

Consider TAAGTCACGTGTAGCT, for which the “relative binding free energy” value turned out to be 0.19 kcal/mol.

For GGAGACACGTGAGCGT, the “relative binding free energy” value came out at 0.21 kcal/mol.

As to CTGGGCACGTGCGTGA, the “relative binding free energy” value was -0.2 kcal/mol.

Turning to GGGCACACGTGGATTG, the “relative binding free energy” value is 0.07 kcal/mol.

With TAATGCACGTGGGATA, the “relative binding free energy” value is 0.01 kcal/mol.

Take TGTGTCACGTGGAATA: the “relative binding free energy” value is 0.11 kcal/mol.

Turning to GGGTGCACGTGAGTAA, the “relative binding free energy” value was determined as 0.25 kcal/mol.

As for AAGAGCACGTGTGTGG, the “relative binding free energy” value was -0.18 kcal/mol.

TGGGTCACGTGTTCCT: the “relative binding free energy” value was found to be 0.2 kcal/mol.

For the sequence TGTTACACGTGTTAAA, the “relative binding free energy” value is 0.14 kcal/mol.

For the sequence TTAGTCACGTGATGTC, the “relative binding free energy” value is 0.12 kcal/mol.

Regarding GGCGTCACGTGTGTAT, the “relative binding free energy” value was 0.19 kcal/mol.

For the sequence GATATCACGTGTCTGT, the “relative binding free energy” value turned out to be 0.18 kcal/mol.

On to GGGGACACGTGGGGTT, for which the “relative binding free energy” value is -0.05 kcal/mol.

On to TTGGGCACGTGTATCT, for which the “relative binding free energy” value was -0.16 kcal/mol.

Consider TGATGCACGTGATCTT, for which the “relative binding free energy” value is 0.06 kcal/mol.

Consider GTTGTCACGTGGGAAG, for which the “relative binding free energy” value came out at 0.01 kcal/mol.

Consider TGTTGCACGTGACGTG, for which the “relative binding free energy” value is 0.14 kcal/mol.

Consider TATGTCACGTGGCGCG, for which the “relative binding free energy” value was -0.01 kcal/mol.

Consider GGAATCACGTGAGTGG, for which the “relative binding free energy” value worked out at 0.39 kcal/mol.

On to TGTGCCACGTGTAGGA, for which the “relative binding free energy” value was -0.2 kcal/mol.

As for GTGGGCACGTGGTGTG, the “relative binding free energy” value was -0.18 kcal/mol.

Consider TGTTGCACGTGTTGCA, for which the “relative binding free energy” value was -0.05 kcal/mol.

For GAGGTCACGTGAGGGG, the “relative binding free energy” value turned out to be 0.34 kcal/mol.

As to TGTTGCACGTGCGTAA, the “relative binding free energy” value is 0.05 kcal/mol.

Turning to ATTGGCACGTGTGGAT, the “relative binding free energy” value was -0.14 kcal/mol.

For the sequence GTGTACACGTGATTGG, the “relative binding free energy” value was 0.13 kcal/mol.

For TGGTGCACGTGCGGTC, the “relative binding free energy” value was -0.14 kcal/mol.

For the sequence ATGGACACGTGGTGGC, the “relative binding free energy” value was determined as 0.1 kcal/mol.

As for GGATACACGTGGTGAG, the “relative binding free energy” value was found to be 0.03 kcal/mol.

GGCTGCACGTGCGAGG: the “relative binding free energy” value was 0.04 kcal/mol.

As for ATTTACACGTGGCTAT, the “relative binding free energy” value is 0.05 kcal/mol.

As for ATTAACACGTGTATTG, the “relative binding free energy” value was -0.13 kcal/mol.

Take GTAAGCACGTGTGGTT: the “relative binding free energy” value amounted to 0.07 kcal/mol.

For AGCTACACGTGGATGG, the “relative binding free energy” value is 0.04 kcal/mol.

As to ATTTACACGTGGGGTT, the “relative binding free energy” value amounted to 0.15 kcal/mol.

For the sequence AGGAGCACGTGTATCT, the “relative binding free energy” value was found to be 0.07 kcal/mol.

In the case of AGGGGCACGTGCGTTT, the “relative binding free energy” value is -0.24 kcal/mol.

For TCTGGCACGTGTTGTG, the “relative binding free energy” value is -0.07 kcal/mol.

As to CAGGTCACGTGTGGTG, the “relative binding free energy” value was found to be 0.01 kcal/mol.

For ATTGGCACGTGTGTCG, the “relative binding free energy” value was -0.09 kcal/mol.

For GGACACACGTGTATGG, the “relative binding free energy” value was determined as 0.27 kcal/mol.

Take AGGGCCACGTGAGTAT: the “relative binding free energy” value was 0.09 kcal/mol.

With TTTCTCACGTGTGGTG, the “relative binding free energy” value is 0.31 kcal/mol.

On to CGTGTCACGTGGGCTT, for which the “relative binding free energy” value is -0.07 kcal/mol.

Turning to TCATTCACGTGGTCGT, the “relative binding free energy” value was 0.32 kcal/mol.

Take TGTCGCACGTGCATTG: the “relative binding free energy” value was found to be 0.17 kcal/mol.

Take CAGGTCACGTGAATGT: the “relative binding free energy” value was 0.24 kcal/mol.

Take GATTACACGTGGGCTG: the “relative binding free energy” value was determined as 0.01 kcal/mol.

Turning to GTAGGCACGTGTATAG, the “relative binding free energy” value was -0.05 kcal/mol.

For AGTTACACGTGAGTCT, the “relative binding free energy” value turned out to be 0.31 kcal/mol.

Regarding AGGACCACGTGGTTGT, the “relative binding free energy” value is -0.18 kcal/mol.

As for TGATTCACGTGCTAGG, the “relative binding free energy” value was 0.24 kcal/mol.

Regarding GGTTTCACGTGCATTG, the “relative binding free energy” value stood at 0.25 kcal/mol.

Take TATTCCACGTGGTTAT: the “relative binding free energy” value turned out to be 0.04 kcal/mol.

CGAGACACGTGTTTGT: the “relative binding free energy” value was -0.05 kcal/mol.

As for GTCGGCACGTGTGAAT, the “relative binding free energy” value came to 0.11 kcal/mol.

Consider TGAGTCACGTGGGGTA, for which the “relative binding free energy” value was -0.1 kcal/mol.

Take TAGTACACGTGCTAGG: the “relative binding free energy” value was determined as 0.1 kcal/mol.

Take TAGGGCACGTGCGCGG: the “relative binding free energy” value was -0.3 kcal/mol.

As for TGTCTCACGTGGATTG, the “relative binding free energy” value came out at 0.27 kcal/mol.

Take TCGTGCACGTGAGAGG: the “relative binding free energy” value turned out to be 0.14 kcal/mol.

In the case of CTTGGCACGTGTGATT, the “relative binding free energy” value came out at 0.13 kcal/mol.

For the sequence GGTCACACGTGGGGGT, the “relative binding free energy” value is -0.06 kcal/mol.

For TGCTTCACGTGAAGTT, the “relative binding free energy” value was determined as 0.28 kcal/mol.

For GGTGCCACGTGAGATG, the “relative binding free energy” value stood at 0.18 kcal/mol.

For GAATTCACGTGGTGTA, the “relative binding free energy” value stood at 0.36 kcal/mol.

Regarding GTGCTCACGTGATGGG, the “relative binding free energy” value came out at 0.45 kcal/mol.

Take GGTCTCACGTGGAGTA: the “relative binding free energy” value is 0.24 kcal/mol.

For the sequence AACGGCACGTGAGGTA, the “relative binding free energy” value came to 0.13 kcal/mol.

As to AGGTCCACGTGTGGCG, the “relative binding free energy” value was 0.11 kcal/mol.

Consider TTCTACACGTGTGGTT, for which the “relative binding free energy” value is 0.14 kcal/mol.

Turning to AAATTCACGTGGGTCG, the “relative binding free energy” value stood at 0.31 kcal/mol.

With GGCTACACGTGTAGGT, the “relative binding free energy” value was 0.21 kcal/mol.

Consider CAATTCACGTGGGAGG, for which the “relative binding free energy” value was determined as 0.14 kcal/mol.

GGGGGCACGTGTCGCT: the “relative binding free energy” value is -0.07 kcal/mol.

For the sequence GATTGCACGTGGGGCT, the “relative binding free energy” value is -0.03 kcal/mol.

In the case of GGTCCCACGTGATGGG, the “relative binding free energy” value came out at 0.1 kcal/mol.

In the case of TGTTTCACGTGGGTCC, the “relative binding free energy” value was found to be 0.29 kcal/mol.

For the sequence TCTTTCACGTGGAGAG, the “relative binding free energy” value is 0.34 kcal/mol.

On to TACGGCACGTGAGTGT, for which the “relative binding free energy” value was found to be 0.07 kcal/mol.

Regarding TACTGCACGTGGTCGT, the “relative binding free energy” value is -0.06 kcal/mol.

With AATTACACGTGAGTGG, the “relative binding free energy” value was determined as 0.33 kcal/mol.

As to GAGATCACGTGGCGGT, the “relative binding free energy” value is 0.15 kcal/mol.

In the case of ATAGGCACGTGTGAAA, the “relative binding free energy” value was 0 kcal/mol.

For the sequence GGGTCCACGTGTTTGC, the “relative binding free energy” value stood at 0.16 kcal/mol.

As to AGGTACACGTGTAGTT, the “relative binding free energy” value is 0 kcal/mol.
